# Values joined by “and” are separate entries in the source; they are usually repeats but may differ in a detail not shown here. Equal values may be shown once. Whole data set: some 5,300 compounds, median “PER2::LUC luminescence relative to vehicle control” near 0.96, cut for the highest 2% near 1.3. The list shows a part of the results.
# Tested on: mPer2Luc MEF
# Assay: PER2::LUC luminescence relative to vehicle control (fold of vehicle); higher = higher PER2::LUC reporter signal
# Conditions: 10 µM
# Procedure, shortened: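 The value is PER2::LUC luminescence expressed as fold of vehicle control. Mouse embryonic fibroblasts carrying the mPer2Luc reporter were seeded at ~3000 cells per well in 384-well plates and grown in DMEM with 10% FBS at 37 °C and 5% CO2. Compounds from commercial libraries were added at 10 μM 48 h after seeding, and luminescence was read with the ONE-Glo luciferase assay system 24 h and 30 h after treatment, followed by an alamarBlue viability assay.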
Structure (SMILES),PER2::LUC luminescence (time after treatment 24 h),PER2::LUC luminescence (time after treatment 30 h)
OCCN1CCN(CCCN2c3ccccc3Sc3ccc(C(F)(F)F)cc32)CC1,0.701 and 0.656,0.61 and 0.647
O=C(O)CCc1nc(-c2ccccc2)c(-c2ccccc2)o1,1,0.853
CC1(C)C=Cc2c(c3c(c4c(=O)c(-c5ccc(O)cc5)coc24)OC(C)(C)CC3)O1,0.576,0.757
O=C(c1cc(Cc2n[nH]c(=O)c3ccccc23)ccc1F)N1CCN(C(=O)C2CC2)CC1,0.993,0.823
CCc1nn(CCO)c(CC)c1Oc1cc(C#N)cc(C#N)c1,1.08,1.12
O=C(O)CCCc1c[nH]c2ccccc12,1.06,1.08
CC(C)[C@@H](C)/C=C/[C@@H](C)[C@H]1CC[C@H]2C3=CC=C4C[C@@H](O)CC[C@]4(C)[C@H]3CC[C@]12C,0.931,1.01
O=C1c2ccccc2C(=O)C1c1ccccc1,1.05 and 0.913,1 and 0.991
Clc1ccc2c(c1)C(N1CCNCC1)=Nc1ccccc1O2,0.542,0.503
CC[C@H]1OC(=O)[C@H](C)[C@@H](O[C@H]2C[C@@](C)(OC)[C@@H](O)[C@H](C)O2)[C@H](C)[C@@H](O[C@@H]2O[C@H](C)C[C@H](N(C)C)[C@H]2O)[C@](C)(O)C[C@@H](C)C(=O)[C@H](C)[C@@H](O)[C@]1(C)O,0.913 and 0.822,0.946 and 0.902
CC(C(=O)O)c1ccc(CC2CCCC2=O)cc1 (stereo not drawn),0.779 and 1.02,1.36 and 1.08
O=C(O)CCc1c(C(=O)O)[nH]c2cc(Cl)cc(Cl)c12,1.03,0.901
CC1=C(/C=C/C(C)=C/C=C/C(C)=C/C=C/C=C(C)/C=C/C=C(C)/C=C/C2=C(C)CCCC2(C)C)C(C)(C)CCC1,1.07,0.941
NC(=O)c1ccccc1O,1.18,0.839
CCCCN1CCC(n2c(=O)[nH]c3ccccc32)CC1,0.829,0.913
CC1(C)CCC(c2ccc(Cl)cc2)=C(CN2CCN(c3ccc(C(=O)NS(=O)(=O)c4ccc(N[C@H](CCN5CCOCC5)CSc5ccccc5)c(S(=O)(=O)C(F)(F)F)c4)cc3)CC2)C1,0.836 and 0.446,0.873 and 0.394
O=C(COc1ccc(C(=O)c2ccccc2)cc1)NC1CCN(Cc2ccccc2)CC1,0.834,0.796
COc1ccc(C(=O)CCC(=O)O)c2ccccc12,0.962,0.886
CO[C@H]1[C@H](OC(=O)c2ccc(C)[nH]2)[C@H](O)[C@@H](Oc2ccc3c(O)c(NC(=O)c4c[nH]c(C(=O)Nc5c(O)c6ccc(O[C@H]7OC(C)(C)[C@@H](OC)[C@H](OC(=O)c8ccc(C)[nH]8)[C@@H]7O)c(C)c6oc5=O)c4C)c(=O)oc3c2C)OC1(C)C,1.1,1.13
Nc1nc(F)nc2c1ncn2[C@@H]1O[C@H](COP(=O)(O)O)[C@@H](O)[C@@H]1O,0.978,0.923
O=C(NOCC1CC1)c1ccc(F)c(F)c1Nc1ccc(I)cc1Cl,0.886 and 0.469,0.637 and 0.442

Structure (SMILES),PER2::LUC luminescence (time after treatment 24 h),PER2::LUC luminescence (time after treatment 30 h)
CCOC(=O)N1CCC(=C2c3ccc(Cl)cc3CCc3cccnc32)CC1,0.934,0.965
N[C@H](CC(=O)O)C(=O)O,1.09,1.08
Oc1c(Br)cc(Br)c2cccnc12,1.15 and 1.02,0.814 and 1.13
COc1ccc(-c2coc3cc(O)ccc3c2=O)cc1,1.77,1.97
CN1CCN(S(=O)(=O)c2ccc(-c3cnc(N)c(C(=O)Nc4cccnc4)n3)cc2)CC1,1.01,0.552
CNc1nc(-c2ccc3c(N)n[nH]c3c2)cc(N2C[C@@H](C(=O)NC3CCCCC3)CC[C@H]2C)n1,0.538,0.486
CS(=O)(=O)c1ccc(C(=O)Nc2ccc(Cl)c(-c3ccccn3)c2)c(Cl)c1,1.17,1.14
CNC(=O)c1cc(Oc2ccc(NC(=O)c3cccc(C(F)(F)F)c3)cc2)ccn1,1.15,1.14
"Cc1ccc2c(c1)C(=O)C1(O)CCN(c3ccccc3)C1=N2 (single isomer, unassigned; (-))",0.694,0.733
O=C(OCCN1CCOCC1)C1(c2ccccc2)CCCCC1,0.994,0.9
COc1ccc(CC(C)NCC(O)c2ccc(O)c(NC=O)c2)cc1 (stereo not drawn),1.02 and 1.05,1.09 and 1.02 and 1
NC(=O)N1CCC(CC(=O)N2CCC([C@H]3c4ncc(Br)cc4CCc4cc(Cl)cc(Br)c43)CC2)CC1,1.05,1.25
COc1cc(OC)c2c(=O)c(OC)c(-c3ccccc3)oc2c1,0.568,0.907
CCN(CC)CCNC(=O)c1ccc(NS(C)(=O)=O)cc1,0.989,1.06
O=C1N[C@H](C(=O)O)CS1,0.846,0.838
C[C@H](N[C@@H](CCc1ccccc1)C(=O)O)C(=O)N1CCC[C@H]1C(=O)O,1.02 and 0.824,0.892 and 1.05
COc1cc2nc(N3CCN(C(=O)OCc4ccccc4)[C@H](C(=O)NC(C)(C)C)C3)nc(N)c2cc1OC,0.874,0.957
CN(C)[C@@H]1C(O)=C(C(N)=O)C(=O)[C@@]2(O)C(O)=C3C(=O)c4c(O)cccc4[C@@](C)(O)[C@H]3C[C@@H]12,1.16,1.03
O=C(Nc1cccnn1)N1CCC(=Cc2cccc(Oc3ccc(C(F)(F)F)cn3)c2)CC1,0.929,0.809
O=C(O)C1CCCNC1 (racemic),0.948,0.967
O=C1/C(=C/c2cccs2)CC/C1=C\c1cccs1,1.07,1.01

Structure (SMILES),PER2::LUC luminescence (time after treatment 24 h),PER2::LUC luminescence (time after treatment 30 h)
C[C@]12CCC(=O)C=C1CC[C@@H]1[C@@H]2C(=O)C[C@@]2(C)[C@H]1CC[C@]2(O)C(=O)CO,0.998,0.948
COCCCC/C(=N\OCCN)c1ccc(C(F)(F)F)cc1,0.826 and 0.832,0.815 and 0.748
CCCCc1ccc(NC(C)=O)c(C)c1,1.1,1.05
CC(=O)[C@@]12O[C@](C)(c3ccccc3)O[C@@H]1C[C@H]1[C@@H]3CCC4=CC(=O)CC[C@]4(C)[C@H]3CC[C@@]12C,0.612,1.19
NC(=O)N[C@@H](CCC(=O)O)C(=O)O,1.04,0.955 and 1.11
O=C(O)CCCc1ccccc1,1.03 and 0.98 and 0.985,0.975 and 1 and 0.888
Cc1cnc(NC(=O)C2=C(O)c3ccccc3S(=O)(=O)N2C)s1,1.06 and 1.19,1.1 and 0.957
CC(C)NCC(O)COc1ccc(CC(N)=O)cc1 (racemic),0.92,1.01
N=C(N)SCCc1c[nH]cn1,1.01,1.13
CC1(C)O[C@@H]2C[C@H]3[C@@H]4CCC5=CC(=O)C=C[C@]5(C)[C@@]4(F)[C@@H](O)C[C@]3(C)[C@]2(C(=O)CO)O1,0.583,1.35
NC1=NCCN1CC(=O)O,1.08,1.08
c1ccc(CN2CCC3(CCc4ccccc43)CC2)cc1,1.03,0.943
OC1(c2ccc(Cl)c(C(F)(F)F)c2)CCN(CCCC(c2ccc(F)cc2)c2ccc(F)cc2)CC1,0.334,0.313
C[C@@H]1C[C@H]2[C@@H]3CCC4=CC(=O)C=C[C@]4(C)[C@@]3(F)[C@@H](O)C[C@]2(C)[C@@]1(O)C(=O)CO,0.654,1.12
O=C(O)COC(=O)Cc1ccccc1Nc1c(Cl)cccc1Cl,1.15,1.03
CC(C)Oc1ccc(C(=O)N[C@H](CNC(=O)CN(C)C)Cc2ccc(-c3cn4cccc([C@H](C)O)c4n3)cc2)cc1Cl,0.763,0.841
CN(C)c1ccc(/C=C2/C(=O)Nc3ccccc32)cc1,1.06,1.12
Cc1nnc(NS(=O)(=O)c2ccc(N)cc2)s1,0.999,1.02
COc1ccc(/C=C/C(=O)c2c(O)cc(OC)cc2OC)cc1,1.08,1.04
C#CCCCCCCCCCCCc1ccco1,0.986,1.01
FC(F)c1nc2ccccc2n1-c1nc(N2CCOCC2)nc(N2CCOCC2)n1,0.473,0.417

Structure (SMILES),PER2::LUC luminescence (time after treatment 24 h),PER2::LUC luminescence (time after treatment 30 h)
O=C1C2CC3CC1CC(O)(C3)C2,1.1 and 1.07,1.01 and 0.937
CCN1CCN(c2cc3c(cc2F)c(=O)c(C(=O)O)cn3C2CC2)CC1,0.718,1
CCN1CCC[C@H]1CNC(=O)c1c(OC)ccc(Br)c1OC,1.03,0.993
Nc1nc2[nH]cc(CCc3ccc(C(=O)O)cc3)c2c(=O)[nH]1,0.282,0.41
COc1ccc2c(OC)c3ccoc3nc2c1OC,1,1.01
C1CCN2C[C@@H]3C[C@@H](CN4CCCC[C@@H]34)[C@H]2C1,0.994 and 0.952 and 0.532,0.989 and 0.946 and 1.01
CC(C)[C@](O)(c1ccc2cc(OC(F)F)c(OC(F)F)cc2c1)c1c[nH]nn1,1.15,1.04
COc1ccccc1S(=O)(=O)Nc1ccc2c(c1)CN(C)C(=O)N2,0.315,0.329
C[C@H]1CN(C[C@H](Cc2ccccc2)C(=O)NCC(=O)O)CC[C@@]1(C)c1cccc(O)c1,0.951,1.06
CCCCCCCC/C=C/CCCCCCCCOP(=O)([O-])OCC[N+](C)(C)C,1.02,0.935
CC1CC(OC(=O)C(O)c2ccccc2)CC(C)(C)N1C (stereo not drawn),0.997,1.05
CN(C)CCOc1ccc(/C(=C(/CCCl)c2ccccc2)c2ccccc2)cc1,1.1 and 0.831 and 0.774,1 and 0.954 and 0.824
CC(C)(Cc1ccc2ccccc2c1)NC[C@@H](O)COc1cccc(Cl)c1C#N,0.478,0.582
CCN1CCN(C(=O)N[C@@H](C(=O)N[C@@H]2C(=O)N3C(C(=O)O)=C(CSc4nnnn4C)CS[C@H]23)c2ccc(O)cc2)C(=O)C1=O,0.973 and 0.949,0.921 and 0.9
Cc1ccc(Cl)c(Nc2ccccc2C(=O)O)c1Cl,0.952 and 1.23,0.856 and 0.956
C=C1/C(=C\C=C2/CCC[C@]3(C)[C@@H]([C@H](C)/C=C/[C@@H](O)C4CC4)CC[C@@H]23)C[C@@H](O)C[C@@H]1O,1.07 and 0.929,1.01 and 0.919
O=C(NCCO[N+](=O)[O-])c1cccnc1,0.981,1.03
Cc1ncc(NC(=O)c2ccc(CN3CCN(C)CC3)c(C(F)(F)F)c2)cc1Nc1nccc(-c2cccnc2)n1,0.666,0.742
CC1=Nc2ccc(Cl)cc2S(=O)(=O)N1,0.859,0.958
Cc1nc(C#Cc2ccnc(Cl)c2)c(C)n1-c1ccc(F)cc1,0.836,0.906
CO[C@@]12[C@H](COC(N)=O)C3=C(C(=O)C(C)=C(N)C3=O)N1C[C@@H]1N[C@@H]12,1.12 and 1.13,0.794 and 0.757

# From the supplement of paper PMC9334596
